PubChem BioAssay AID504832 (National Center for Advancing Translational Sciences (NCATS), 2011)
The campaign covered roughly 310,000 compounds. About 18,000 (5.8%) were called active. The inconclusive results got no clear call from the source; some entries with a clear call stand among them for comparison. The call rests on the fitted dose curve; in most records, active means well fitted inhibition curve with a large enough effect; inconclusive means small, poorly fitted or top-dose-only effect, or another doubt; inactive means no such curve, though single readings can be large or run the other way. No potency is given beside an inconclusive call; the fits are too rough.

Test: Primary qHTS for delayed death inhibitors of the malarial parasite plastid, 48 hour incubation
Conditions: P. falciparum luciferase growth in erythrocytes; series mostly up to 28.7 µM; activity change, negative = inhibition: at the top concentration
Method in brief: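 Luciferase-expressing P. falciparum in infected erythrocytes (2% hematocrit, 0.1% parasitemia final) in RPMI 1640/0.5% Albumax were exposed to compound for 48 hours at 37 C, 5% CO2; growth read as luminescence.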
On the % scale 0 is the no-effect control and ±100 the full control effect; potency means the concentration at half of the fitted maximal effect; tags describe the fitted curve by direction and shape.

Row | Compound | activity change, negative = inhibition | Potency
1 | O=C(CCSCc1ccc(Cl)cc1)NCCc1ccccc1 | inactive: 6.16% | –
2 | CC1CCCCN1C(=O)COC(=O)c1cc([N+](=O)[O-])ccc1N (stereo not drawn) | inactive: 41% | –
3 | Cc1nn(-c2ccccc2)c2c1C1(C(=O)Nc3ccccc31)N1C(=N2)Sc2ccccc21 (stereo not drawn) | – | inconclusive [inhibitor, single point]
4 | O=C1N(c2ccccc2)C[C@@H]2C[C@@H](c3cccs3)N3CCC[C@@]123 | – | inconclusive [inhibitor, full curve]
5 | COc1cc(OC)cc(C(=O)NC(C)c2ccc(Br)cc2)c1 (stereo not drawn) | – | inconclusive [inhibitor, single point]
6 | COCC(C)n1c(SCC(=O)Nc2sccc2C(N)=O)nc2ccccc2c1=O (stereo not drawn) | – | active: 9.28 µM
7 | O=C(Cc1cccs1)NCCS(=O)(=O)N1CCN(c2cccc(Cl)c2)CC1 | – | inconclusive [inhibitor, single point]
8 | O=C(c1ccco1)N1CCN(C(=O)C2c3ccccc3Oc3ccccc32)CC1 | – | inconclusive [inhibitor, partial curve, poor fit]
9 | C=CCn1c(SCC(=O)Nc2ccccc2C)nc(O)cc1=O | – | inconclusive [inhibitor, partial curve, poor fit]
10 | Cc1ccc(N(C)C(=O)c2ccc(CNc3c(N4CCC(C)CC4)c(=O)c3=O)cc2)cc1 | – | active: 9.28 µM
11 | c1ccc(C2=Nc3ccccc3SC2c2nc3ccccc3[nH]2)cc1 (stereo not drawn) | – | inconclusive [inhibitor, partial curve, poor fit]
12 | COC(=O)c1ccc(OCC(=O)c2cccc(OC)c2)cc1 | inactive: 149% | –
13 | Cc1noc(C)c1C(=O)Nc1ccc(F)cc1F | inactive: 6.14% | –
14 | CCOc1ccc(NC(=O)Nc2ccc(Cc3ccncc3)cc2)cc1 | – | inconclusive [inhibitor, single point]
15 | NC(=O)c1ccc(Oc2ccc(Cl)c3ccccc23)c([N+](=O)[O-])c1 | inactive: 12.6% | –
16 | O=C(/C=C/c1ccc(Cl)cc1)N(Cc1ccccc1)c1ccccn1 | – | inconclusive [inhibitor, partial curve, poor fit]
17 | CN(CC(=O)Nc1ccccc1Br)C(=O)c1sccc1-c1ccccc1 | – | inconclusive [inhibitor, single point]
18 | COC(=O)c1c(C)[nH]c(C)c1-c1ccc([N+](=O)[O-])cc1 | – | inconclusive [inhibitor, partial curve]
19 | COc1ccc(-c2cc(C)no2)cc1S(=O)(=O)N1CCN(c2ccccn2)CC1 | inactive: -19.5% | –
20 | CNC(=O)COC(=O)/C=C/c1cn(-c2ccccc2)nc1-c1ccc2c(c1)OCCO2 | – | inconclusive [inhibitor, single point]
21 | COc1cccc(NC(=O)c2ccccc2Br)c1 | inactive: 111% | –
22 | Cc1cccc(NC(=O)COc2ccc(/C=C\c3[nH]c(=O)[nH]c(=O)c3[N+](=O)[O-])cc2)c1 | inactive: -1.55% | –
23 | O=C(Nc1ccc2ccccc2n1)C1CCCCC1 | inactive: 125% | –
24 | CC(c1nnnn1C1CCCCC1)N(Cc1ccccc1)Cc1cccnc1 (stereo not drawn) | – | active: 10.4 µM
25 | CCc1cccc(Nc2cc(C)nc3nc(C)nn23)c1 | – | active: 5.22 µM

Row | Compound | activity change, negative = inhibition | Potency
26 | CC(CCc1ccccc1)NC(=O)CNC(=S)N(Cc1cccs1)C1CCCC1 (stereo not drawn) | – | inconclusive [inhibitor, single point]
27 | CCOc1ccc(-n2ccc(=O)c(C(=O)Nc3ccc(S(=O)(=O)Nc4nccs4)cc3)n2)cc1 | – | inconclusive [inhibitor, single point]
28 | C/C=C/Cn1c(SCc2ccc(Cl)cc2)nc2c1c(=O)[nH]c(=O)n2C | – | inconclusive [inhibitor, partial curve, poor fit]
29 | Nc1nccc(-c2ccc(-n3cccc3)cc2)n1 | inactive: 274% | –
30 | COc1ccccc1Cn1c(=S)[nH]c2cc(C(=O)NCCN(C)C)ccc2c1=O | – | inconclusive [inhibitor, single point]
31 | COC(=O)c1ccc(COC(=O)[C@@H]2CC(O)CN2S(=O)(=O)c2ccccc2[N+](=O)[O-])cc1 (stereo partly drawn) | inactive: -0.137% | –
32 | CC(=O)c1ccccc1NS(=O)(=O)c1ccccc1Cl | inactive: -11.1% | –
33 | O=C(c1ccc(=O)oc1)N1CCC(C(O)(c2ccccc2)c2ccccc2)CC1 | – | inconclusive [inhibitor, partial curve, poor fit]
34 | CCc1ccccc1NC(=O)COc1ccc(N2CC(C(N)=O)CC2=O)cc1 (stereo not drawn) | inactive: 2.17% | –
35 | Cc1ccc(C(=O)N(Nc2nc3ccccc3s2)C(=O)c2ccc(C)cc2)cc1 | inactive: 11.1% | –
36 | COc1cc(OC)cc(C(=O)N[C@H](C(=O)Nc2ccc(S(=O)(=O)N(C)C)cc2)C(C)C)c1 | – | inconclusive [inhibitor, partial curve]
37 | COc1ccc(C)cc1NC(=O)CCCN1C(=O)C(c2ccccc2)Oc2cccnc21 (stereo not drawn) | – | inconclusive [inhibitor, single point]
38 | COc1ccc(NC(=O)C2=NN(C3CCS(=O)(=O)C3)C(=O)CC2)cn1 (stereo not drawn) | inactive: 16.7% | –
39 | Oc1c(C=C2N=c3ccccc3=N2)sc(=S)n1-c1ccc2ccccc2c1 | – | inconclusive [inhibitor, single point]
40 | CCOc1ccccc1N1CCN(CC(=O)Nc2ccccc2C(=O)NC2CC2)CC1 | – | active: 9.28 µM
41 | O=C(c1ccc2c3c(cccc13)CC2)C1CCCN(Cc2ccc(OCCO)cc2)C1 (stereo not drawn) | – | active: 6.57 µM
42 | CCNC(=S)N(CCc1cccc(C)c1)Cc1cc2cc(OC)c(OC)cc2[nH]c1=O | – | inconclusive [inhibitor, single point]
43 | CC1(C)Cn2c(nc(=O)c3c2NCN(CCc2ccccc2)C3)S1 | inactive: 11.6% | –
44 | COc1ccccc1OC(=O)CN1C(=O)c2ccccc2C1=O | inactive: 3.55% | –
45 | O=C1CC(NCCC2=CCCCC2)C(=O)N1c1cccc(Cl)c1Cl (stereo not drawn) | – | inconclusive [inhibitor, single point]
46 | Cc1ccc(S(=O)(=O)NCC(=O)N(CC(=O)NC2CCCC2)CC2CCCO2)cc1 (stereo not drawn) | inactive: -7.94% | –
47 | COc1ccc(OC)c(CNc2ccc3c(c2)nc(C)n3C)c1 | inactive: -20.3% | –
48 | O=C(CCl)Nc1cccc2ncccc12 | – | active: 2.33 µM
49 | COc1cccc(CNC(=O)CCn2ccc3cc(S(=O)(=O)N4CCC(C)CC4)ccc32)c1 | – | inconclusive [inhibitor, partial curve, poor fit]
50 | CCOc1ccccc1C(=O)NCC(=O)OCc1csc(CC(=O)Nc2ccc(C)cc2)n1 | inactive: -1.36% | –

Row | Compound | activity change, negative = inhibition | Potency
51 | CCC(C)c1ccccc1N1CC(C(=O)NCCC2=CCCCC2)CC1=O (stereo not drawn) | – | inconclusive [inhibitor, partial curve, poor fit]
52 | COc1ccc(NC(=O)CN2CCN(c3nc(-c4cccc(OC)c4)cs3)CC2)cc1 | – | active: 8.28 µM
53 | O=C(O)CSCC(=O)Nc1ccc(C2CCCCC2)cc1 | – | inconclusive [inhibitor, full curve, poor fit]
54 | CC1CN(CCOc2ccccc2-c2ccccc2)CC(C)O1 (stereo not drawn) | – | inconclusive [inhibitor, partial curve]
55 | Cc1ccc(NC(=O)c2ccc(-n3cncn3)c([N+](=O)[O-])c2)cc1F | – | inconclusive [inhibitor, partial curve, poor fit]
56 | CSc1nc(NC(C)(C)C)nc(N2CCOCC2)n1 | – | inconclusive [inhibitor, single point]
57 | NP(=O)(OCCCc1ccccc1)Oc1ccccc1 (stereo not drawn) | – | inconclusive [inhibitor, full curve, poor fit]
58 | COC(=O)c1ccc(NC2c3ncccc3C(=O)N2Cc2cccs2)cc1 (stereo not drawn) | inactive: 2.79% | –
59 | CCN1CCN(c2ncc(C(=O)Nc3cc(Cl)ccc3OC)c3ccccc23)CC1 | – | inconclusive [inhibitor, single point]
60 | Cc1cc(C)nc(N/N=C/c2cc(Br)ccc2O)n1 | – | inconclusive [inhibitor, full curve]
61 | CCN(C(=O)CSc1nc2ccccc2n1CCc1ccccc1)C1CCS(=O)(=O)C1 (stereo not drawn) | inactive: -16.7% | –
62 | CC(C)=NNc1nc2c(c(=O)[nH]c(=O)n2C)n1CCCc1ccccc1 | – | inconclusive [inhibitor, partial curve, poor fit]
63 | CC(=O)Nc1ccc(S(=O)(=O)NC(C)c2ccccc2)cc1 (stereo not drawn) | inactive: -6.78% | –
64 | COc1ccc(-c2csc3ncnc(N4CCN(c5ccccc5Cl)CC4)c23)cc1 | – | inconclusive [inhibitor, full curve]
65 | CCN(CC(=O)Nc1c(F)cccc1F)C(=O)c1cc([N+](=O)[O-])ccc1N1CCCCC1 | – | inconclusive [inhibitor, partial curve]
66 | COc1ccc(-c2nonc2NC(=O)c2oc3ccccc3c2C)cc1OC | – | inconclusive [inhibitor, single point]
67 | COc1ccccc1NCC(=O)NNC(C)C(=O)Nc1cccc(Cl)c1 (stereo not drawn) | inactive: 0% | –
68 | COc1ccccc1NC(=O)c1ccc(NC(=O)CN(C)Cc2ccccc2F)cc1 | inactive: 450% | –
69 | CC(C)N=c1cc2n(-c3ccc(Cl)cc3)c3ccccc3nc-2cc1Nc1ccc(Cl)cc1 | – | active: 2.87 µM
70 | O=S(=O)(c1cccs1)N1CCC2(CC1)OCCO2 | – | inconclusive [inhibitor, single point]
71 | Clc1ccc(CN2C3=NCCCN3c3ccccc32)c(Cl)c1 | – | inconclusive [inhibitor, single point]
72 | Cc1ccc2nc(NCc3ccccc3)[nH]c2c1 | – | inconclusive [inhibitor, partial curve]
73 | CC(=O)Nc1ccc(Nc2nc3c(S(=O)(=O)c4ccc(C)c(C)c4)nnn3c3ccccc23)cc1 | – | inconclusive [inhibitor, full curve]
